Data from patent US20210221784A1, “COMPOUNDS AND COMPOSITIONS FOR THE TREATMENT OF PAIN” (Université de Strasbourg, priority 2018, published 2021).
Not every entry of the source has a single result; some have several. The list is limited to them. An entry can have further records. Results that share an entry read as repeated measurements (runs, samples, wells or individuals). Records carry a tag for their origin. A, B and so on number the origins entry by entry.

Target: T1, hNPFFR2 (Homo sapiens, UniProt Q9Y5X5)
T1 construct: expressed in transfected cells; membranes
T1 sequence (Q9Y5X5 whole entry): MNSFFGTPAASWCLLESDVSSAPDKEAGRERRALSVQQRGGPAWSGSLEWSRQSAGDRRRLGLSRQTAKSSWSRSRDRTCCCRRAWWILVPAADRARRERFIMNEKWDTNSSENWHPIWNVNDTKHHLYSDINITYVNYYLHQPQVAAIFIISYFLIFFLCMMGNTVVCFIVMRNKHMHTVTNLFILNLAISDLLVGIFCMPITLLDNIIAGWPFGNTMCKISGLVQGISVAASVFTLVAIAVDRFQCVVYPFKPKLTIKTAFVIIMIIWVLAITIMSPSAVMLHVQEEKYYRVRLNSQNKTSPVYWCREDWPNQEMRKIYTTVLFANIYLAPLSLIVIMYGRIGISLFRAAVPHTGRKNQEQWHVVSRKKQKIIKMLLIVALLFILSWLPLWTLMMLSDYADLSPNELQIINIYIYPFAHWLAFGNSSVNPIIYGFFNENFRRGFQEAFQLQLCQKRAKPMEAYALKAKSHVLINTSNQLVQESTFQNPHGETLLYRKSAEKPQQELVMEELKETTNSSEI
Test: Radioligand binding competition, membranes from CHO cells expressing hNPFFR2
Conditions: 0.015 nM [D-Tyr1[125I], N-MePhe3]-NPFF, 1 hr at 25° C., read-out: NPFF2-R Ki

- Ki: 7.3 µM [table A] and 7.3 nM [table B]
Structure (SMILES): Nc1ccc(-c2ccccc2)c(N)n1 [Compound 1a, 3-phenylpyridine-2,6-diamine]
